Several values for one entry are separate records, joined by “and”; a condition that tells them apart may be missing. Equal values may be shown once. This list was built around the results that the source calls inconclusive (neither active nor inactive); the mix of calls is not that of the screen. Potencies of inconclusive entries are doubtful fits and often do not repeat. Activity calls are given as the source filed them. Calls follow the shape of the dose curve; as a rule, active = well fitted curve in the direction sought with a large enough effect in the repeat runs; inconclusive = weak or mixed curves; inactive = no such curve, though single readings can be large; an effect the other way counts as inactive or inconclusive.
test: qHTS RealTime-Glo MT Cell Viability Assay in HepG2 cells - 8 hour (AID 1224873); details: RealTime-Glo luminescence; series mostly up to 76.8 µM; viability change, negative = cytotoxic: at the top concentration; also: nearly all actives have a fitted effect of over 55% in size; as to viability change, negative = cytotoxic: % is scaled to controls: 0 for no effect and ±100 for the full control effect
Summary of the method: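 Real-time viability: cells seeded at 600 per well together with NanoLuc and cell-permeant prosubstrate, compounds added after 5 h incubation. Luminescence tracked at 0, 8, 16, 24, 32 and 40 h of exposure.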
Potency is read from the fitted curve at half-maximal effect; tags tell the direction and shape of the fitted curve.

SMILES | Potency
N/C(=N\N=C\c1ccc(Cl)cc1)N/N=C/c1ccc(Cl)cc1 | inconclusive: 21.3 µM [falling, partial curve]
CC(C)(C)c1ccc(C(=O)CCCN2CCC(OC(c3ccccc3)c3ccccc3)CC2)cc1 | active: 19 µM
CCCCCCCCCCCCOC(=O)c1cc(O)c(O)c(O)c1 | active: 48.8 µM and active: 43.6 µM
Cc1cc(CCN2CCN(c3nsc4ccccc34)CC2)cc2c1NC(=O)CC2(C)C | inconclusive: 54.9 µM [falling, single point]
Cc1ccc(C(C)(C)C)c(O)c1 | inconclusive: 49 µM [falling, partial curve]
CN(C[C@@H](CC[N+]12CCC(C3CCCCC3)(CC1)CC2)c1ccc(Cl)c(Cl)c1)C(=O)c1cc(C(F)(F)F)cc(C(F)(F)F)c1 | active: 24.5 µM
CC(=O)OCCOC(C)=O | inactive
CCCCCCCCNC(C)C(O)c1ccc(SC(C)C)cc1 (stereo not drawn) | active: 21.3 µM
CS(=O)(=O)CCNCc1ccc(-c2ccc3ncnc(Nc4ccc(OCc5cccc(F)c5)c(Cl)c4)c3c2)o1 | active: 23.9 µM

test: qHTS RealTime-Glo MT Cell Viability Assay in HEK293 cells - 40 hour (AID 1224874); details: RealTime-Glo luminescence; max response: stronger effect = lower value; also: nearly all actives have a fitted effect of over 50% in size
Summary of the method: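 qHTS format; HEK293 cells with NanoLuc/prosubstrate reagent, 37 C/5% CO2 for 5 h pre-dosing; compounds 23 nL in DMSO; luminescence at each time point reflects viable cells.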

SMILES | Potency
CCCC(c1cc(C(C)(C)C)c(O)cc1C)c1cc(C(C)(C)C)c(O)cc1C | active: 17.6 µM
CCCCCCCCOC(=O)c1ccc(O)cc1 | inconclusive: 21.9 µM [cytotoxic, full curve]
O=C1c2ccccc2C(=O)N1SC1CCCCC1 | active: 21.9 µM and active: 38.9 µM
N/C(=N\N=C\c1ccc(Cl)cc1)N/N=C/c1ccc(Cl)cc1 | inconclusive: 21.3 µM [cytotoxic, partial curve]
CC(C)c1ccc2sc3ccccc3c(=O)c2c1 | inconclusive: 6.92 µM [cytotoxic, partial curve]
CC(C)(C)c1ccc(C(=O)CCCN2CCC(OC(c3ccccc3)c3ccccc3)CC2)cc1 | active: 9.52 µM
O=C1C=CC(=O)N1c1ccc(Cc2ccc(N3C(=O)C=CC3=O)cc2)cc1 | active: 12.3 µM
CCOC(=O)C1=C(C)NC(C)=C(C(=O)OCC)C1c1ccccc1/C=C/C(=O)OC(C)(C)C | inconclusive: 19 µM [cytotoxic, partial curve]
CC1=CC(=O)c2ccccc2C1=O | inconclusive: 26.8 µM [cytotoxic, single point]
CCCCCCCCNC(C)C(O)c1ccc(SC(C)C)cc1 (stereo not drawn) | active: 8.49 µM
COc1ccc(C(Cl)=C(c2ccc(OC)cc2)c2ccc(OC)cc2)cc1 | inconclusive: 48.7 µM [cytotoxic, single point] and inconclusive: 24.5 µM [cytotoxic, partial curve]
CN(C)C(=S)SC(=S)N(C)C | active: 1.59 µM and active: 1.23 µM and active: 6.01 µM
CS(=O)(=O)CCNCc1ccc(-c2ccc3ncnc(Nc4ccc(OCc5cccc(F)c5)c(Cl)c4)c3c2)o1 | inconclusive: 21.3 µM [cytotoxic, partial curve]

test: A CellTox Green Cytotoxicity Assay to monitor cytotoxicity in HEK293 cells - 24 hour (AID 1224875); details: CellTox Green fluorescence; series mostly up to 76.8 µM; activity change: at the top concentration; also: nearly all actives have a fitted effect of over 45% in size; as to activity change: % is scaled to controls: 0 for no effect and ±100 for the full control effect
Summary of the method: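 Each value comes from one timepoint of a single continuous run in which HEK293 cells with CellTox Green were exposed to compound for up to 40 h at 37 C, dye fluorescence rising with cell death.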

SMILES | Potency | activity change
CCCC(c1cc(C(C)(C)C)c(O)cc1C)c1cc(C(C)(C)C)c(O)cc1C | active: 55.6 µM | –
N/C(=N\N=C\c1ccc(Cl)cc1)N/N=C/c1ccc(Cl)cc1 | active: 23.9 µM | –
CCCCCCCCCCCCCCCCCCNC(=O)OC1CCN(C(=O)OC[C@H](COC(=O)N(Cc2cccc[n+]2CC)C(=O)c2ccccc2OC)OC)CC1 | inconclusive: 26.8 µM [activator, single point] | –
CCCCCCCCCCCCOC(=O)c1cc(O)c(O)c(O)c1 | active: 54.7 µM and active: 49 µM | –
Cc1cc(CCN2CCN(c3nsc4ccccc34)CC2)cc2c1NC(=O)CC2(C)C | active: 49 µM | –
O=C1C=CC(=O)N1c1ccc(Cc2ccc(N3C(=O)C=CC3=O)cc2)cc1 | active: 38.9 µM | –
Nc1cc([N+](=O)[O-])ccc1O | inconclusive: 1.1 µM [activator, single point] | –
Oc1ccc(-c2ccccc2)c(Cl)c1 | inconclusive: 54.9 µM [activator, single point] | –
CCCCC(CC)CN=C(N)NC(N)=NCCCCCCN=C(N)NC(N)=NCC(CC)CCCC (stereo not drawn) | active: 7.56 µM | –
Cc1ccc(C(C)(C)C)c(O)c1 | active: 23.8 µM and active: 24.5 µM | –
CN(C[C@@H](CC[N+]12CCC(C3CCCCC3)(CC1)CC2)c1ccc(Cl)c(Cl)c1)C(=O)c1cc(C(F)(F)F)cc(C(F)(F)F)c1 | active: 24.5 µM | –
O=C(Nc1ccccc1)c1cc(Cl)ccc1O | – | inactive: 11.3%
CCCCCCCCNC(C)C(O)c1ccc(SC(C)C)cc1 (stereo not drawn) | active: 16.9 µM | –
C=C(C)C(=O)OCCC[Si](OC)(OC)OC | inconclusive: 61 µM [activator, single point] | –
CN(C)C(=S)SC(=S)N(C)C | active: 3.99 µM and active: 21.9 µM and inconclusive: 6.74 µM [activator, partial curve, poor fit] | –
CCCCCCCCCC[N+](C)(CCCCCCCCCC)CCC[Si](OC)(OC)OC | active: 38.9 µM | –

Reference: PubChem BioAssay (Tox21)
